Assay results as given in PubChem BioAssay AID1508624 (National Center for Advancing Translational Sciences (NCATS), 2021).
The whole screen tested about 48,000 compounds, of which about 120 (0.25%) were called active. Another 4% or so got no clear call; they are omitted. Calls come from the whole dose curve; as a rule, active = well fitted activation curve with a large enough effect; inconclusive = small, poorly fitted or top-dose-only effect, or another doubt; inactive = no such curve, though single readings can be large or run the other way. The list shows a part of the results.

Test: Primary qHTS for Identification of Small Molecule Activators of Huntingtin-Antisense Promoter Activity; note: nearly all actives have a fitted effect of over 55% in size
Details: HEK293 HTT-AS promoter firefly luciferase reporter, 24 h; series mostly up to 57.5 µM; activity change, positive = activation: at the top concentration
Method in brief: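 HEK293 luciferase promoter-reporter cells (2,500/well) plated 24 h, then compounds added at up to 57.5 uM final for 24 h at 37 °C. Firefly luminescence by Dual-Glo, normalized to vehicle (0%) and zero RLU (-100%).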

Activity change, positive = activation, inactive:
Cc1ccc(N2CCn3c2nc2c3c(=O)n(CCCc3ccccc3)c(=O)n2C)cc1C -4.78%
O=C(Nc1ccc(F)c(Cl)c1)N1CC=C(c2c[nH]c3ccccc23)CC1 -9.89%
CC(C)CCNC(=O)c1cc2cc(S(=O)(=O)N3CCCCC3)ccc2n1C -29%
Cn1c(=O)oc2cc(S(=O)(=O)N3CCCC(C(=O)NCc4ccc(F)cc4)C3)ccc21 (stereo not given) -36.4%
O=C(NC1CCN(CCc2c[nH]c3ccccc23)CC1)c1ccccc1 -6.89%
O=C(NCCc1ccccc1Cl)c1sc2ncccc2c1-n1cccc1 10.3%
CCC(=O)N1c2ccccc2CC1C(=O)NCCc1ccccc1 (stereo not given) -5.22%
CSc1ncc(Cl)c(C(=O)Nc2c(C(=O)Nc3cccc(Cl)c3)oc3ccccc23)n1 -5.17%
CCC(=O)Nc1ccccc1-c1nc2ccccc2n(CC(=O)c2ccc(C)cc2)c1=O -14.6%
Cc1ccc(N2CCN(C(=O)c3cnc(N4CCCCC4)c4ccccc34)CC2)c(C)c1 -29.1%
COc1ccc(CNC(=O)CCCN2C(=O)COc3ccc(C)cc32)cc1 -3.32%
COc1cccc(Cn2nnc3c(=O)[nH]c(C4CCN(C(=O)c5ccccc5Cl)CC4)nc32)c1 -27.9%
CC(C)(C)C(=O)Oc1ccc2c(c1)nc(NC(=O)c1cccc([N+](=O)[O-])c1)n2CCCO -0.719%
CC1=C(C(N)=O)C(c2ccccc2Br)n2ncnc2N1 (stereo not given) -7.42%
O=C(NCc1ccccc1Br)c1cnc2sc(N3CCCCCC3)nn2c1=O 2.9%
O=C(Cn1ncc2c3ccccc3n(Cc3ccc(F)cc3)c2c1=O)NCCC1=CCCCC1 -1.13%
Cc1ccc(C)c(CN2C(=O)c3ccccc3S(=O)(=O)c3ccc(C(=O)NCCCN4CCCC(C)C4)cc32)c1 (stereo not given) -22.1%
Cc1c(C(=O)Nc2ccc(C(C)C)cc2)sc2nc3n(c(=O)c12)CCC3 -21.3%
CCC(CC)c1nn2c(=O)cc(COc3ccc(NC(=O)c4ccc(C)cc4)cc3)nc2s1 -4%
Cc1nn(C(=O)c2ccc(Cl)cc2)c(C)c1S(=O)(=O)N1CCOCC1 -16.4%
Cc1cn2c(=O)cc(COC(=O)c3cccc(NC(=O)c4ccccc4Cl)c3)nc2s1 -19.7%
CCc1ccc(CNC(=O)CN2C(=O)CSc3c2c(C)nn3-c2ccccc2)cc1 -16.6%
Cc1ccc(CNc2ncnc3c2nnn3C)cc1 12.1%
COc1ccc(OCC(=O)NCC(c2ccc(OC)cc2)N2CCCCC2)cc1 (stereo not given) 9.01%
COc1cc(OC)nc(O[C@H](C(=O)O)C(OC)(c2ccccc2)c2ccccc2)n1 -1.64%
COc1ccc(C2C(C(=O)Nc3cccnc3)=C(C)Nc3nc(-c4ccccc4)nn32)cc1OC (stereo not given) -8.1%
O=c1[nH]c(=O)n(C2CCCCC2)c(O)c1C1=Nc2ccccc2SC(c2ccccc2)C1 (stereo not given) -11.6%
Cc1cccc(OCC(=O)N(Cc2ccc(C(C)(C)C)cc2)Cc2ccco2)c1 -41%
CN(C)c1ccc(/C=C/c2noc(-c3ccccc3O)n2)cc1 0%
COc1ccccc1NC(=O)C1=C(C)Nc2nc(SCc3ccccc3Cl)nn2C1c1ccccn1 (stereo not given) -7.09%
CSc1ccc(CCNS(=O)(=O)c2ccc3c(c2)C(C)(C)C(=O)N3C)cc1 -27.6%
COc1cc(OC)cc(C(=O)N2CCN(C(=O)COc3ccccc3)CC2)c1 5.4%
Cc1ccc(C(c2cccc(Br)c2)c2c(C)[nH]c3ccccc23)s1 (stereo not given) 6.61%
CC(C)c1ccc(NC(=O)C(C)N(c2ccccc2)S(C)(=O)=O)cc1 (stereo not given) -21.3%
O=c1c2ccccc2n2c(-c3ccc(Cl)cc3)nnc2n1CCc1ccccc1 -0.952%
COc1cc(OC)c(NC(=O)N2CC3CCCN3c3ccccc32)cc1Cl (stereo not given) -28.2%
CCc1ccc(-n2nc(C)c3c(C)cc(=O)n(CC(=O)Nc4ccc(C(C)=O)cc4)c32)cc1 -2.97%
COCCCNc1nc(NCc2cccc(Cl)c2)c2cnn(C)c2n1 -26.3%
COc1ccc(-c2nc(CSc3nnc(C)n4c3cc3occc34)c(C)o2)cc1OC -21.3%
CC(C)C(NS(=O)(=O)c1ccc2c(c1)oc(=O)n2C)C(=O)NCCc1ccccc1 (stereo not given) 5.52%
CC(=O)Nc1ccc(-n2c(CCC(=O)O)ccc2-c2ccc(Br)cc2)cc1 2.6%
COc1ccc(CNC(=O)Cc2c(C)c3c(cc(C)c4c(C)coc43)oc2=O)cc1OC -2.01%
COc1ccc(Cl)cc1NC(=O)Cn1c(=O)n(Cc2cccs2)c(=O)c2cccnc21 -32.5%
CC1=C(C(=O)O)N2C(=O)[C@@H](NC(=O)C(N)c3ccccc3)[C@H]2SC1 (stereo not given in full) -9.24%
CCOC(=O)c1cc(-c2ccc(C)cc2)n(CC(=O)Nc2ccccc2F)c1C -13.8%
COc1ccc(Br)c2c1-c1nc(NC(=O)c3ccccc3F)sc1C2 -9.45%
CCc1ccc(-c2[nH]nc3nc(-c4ccc(OC)cc4)cc(C(=O)NCCCOC)c23)cc1 6.65%
COc1ccc(CCCc2nnc(SCC(=O)Nc3cc(C)ccc3C)o2)cc1 7.32% [at 11.5 µM, percent change from vehicle, -100% = no light]
COC(=O)c1ccccc1NC(=O)c1ccc(COc2cc(C)cc(C)c2)o1 15.9%
Cc1nc2ccc(S(=O)(=O)N(CC(=O)Nc3cccc(Cl)c3)Cc3ccccc3)cc2s1 -32.5%
Cc1nn(CC(=O)NCc2ccc(N(C)C)cc2)c(=O)c2c(C)n(-c3ccc(Cl)cc3)nc12 -39.8%
CCOc1ccc(NC(=O)CCn2c(=O)c3cccn3c3cccnc32)cc1 -6.88%
COc1ccc(CCNC(=O)c2ccc3c(c2)N(Cc2cc(C)ccc2C)C(=O)c2ccccc2S3=O)cc1OC (stereo not given) -23.3%
COc1ccc(-c2nc(SCC(=O)N3CCN(c4ccc(F)cc4)CC3)n[nH]2)cc1 -18.8%
CCCCOc1ccc(CNC(=O)Cc2ccc(NC(=O)N3CCCCc4ccccc43)cc2)cc1 -8.71%
CCn1c(=O)n(-c2ccc(F)cc2)c(=O)c2sc3ccccc3c21 -1.82%
CC(C)(C)OC(=O)N1CCC(c2c(C(=O)N3CCN(c4ccccc4)CC3)cnn2-c2ccccc2)CC1 -8.84%
CCOC(=O)c1c(Nc2ccc(F)cc2)nnc(-c2ccccc2)c1-c1ccccc1 -30.8%
CC(=O)N1CCC2(CC1)OC(=O)C(C)=C2C(=O)Nc1cc(C)ccc1C -11.3%
O=C(c1ccccc1Cl)N(Cc1ccco1)c1ccccn1 -19.5%
